According to the supplement of paper PMC11417369:
± gives the standard deviation of the averaged measurements. This is one part of the list.

system: PfAP2-LT AP2 domain (GST-tagged); experiment: gcPBM binding intensity (ln(normalized median fluorescence intensity)); higher = stronger DNA binding
In short: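 After 1 h on an Agilent 4 × 180k array of primer-extended double-stranded 36-bp intergenic genomic probes and negative controls, bound GST-tagged P. falciparum DNA-binding domains were detected with Alexa488 anti-GST antibody and scanned at 488 nm. The domains had been expressed in E. coli, and binding took place in 1× PBS with 1% milk, 0.2 mg/ml BSA, 0.5% salmon testes DNA and 0.03% Triton X-100. Binding intensity is the highest Masliner-normalised natural-log median intensity across replicate spots of either probe orientation.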

Row | Sequence | gcPBM binding intensity (ln)
1 | CAAATATAAATATATACATGCATCTATCTATATAAA [TGCATGCA_site369] | 8.64 ± 0.49
2 | AATCAAAAATCAAACGCATGTAGTATAATAGATAAG [TGCATGCA_site753] | 9.05 ± 0.36
3 | AAATTGTAGCACCAAGCATGCTAAAAGGACATATGA [TGCATGCA_site717] | 8.96 ± 0.35
4 | AAATTATATCATTTATTTTTTTATATTTTTTATATT [CACACA_negctrl_site685] | 8.53 ± 0.64
5 | AATTTCCTTTTTTAAAGTACACAAAAGTTCACTTTG [XGTACX_site4460] | 8.53 ± 0.54
6 | TATAATTTATTAAGGGGTACATATATTTCATGATAA [XGTACX_site5141] | 8.7 ± 0.29
7 | AAGATTAAAAATTGCACACAAAAATATATTTTCTAT [CACACA_site1305] | 8.83 ± 0.48
8 | TAGTATAAAATTATGTGTACACAAATATAACTTTTC [XGTACX_site5971] | 8.87 ± 0.43
9 | TATTTATTGTGATACTTTTATTGTTTAATGATTAAA [CACACA_negctrl_site495] | 8.46 ± 0.53
10 | AAAAAAAAAAAAAGGTGTACAAGTATAATTACATAA [XGTACX_site534] | 8.75 ± 0.54
11 | AAATTATATCAATGTTGTACATATTATTTTTTTCTC [XGTACX_site5948] | 8.78 ± 0.52
12 | AAAAAAAAAAATATCACACACACATAAATATAAACC [CACACA_site2278] | 9.82 ± 0.24
13 | TAATGAATTTAAATTTTAAAATTAATAAAAAAAATA [TGCATGCA_negctrl_site15] | 8.16 ± 0.5
14 | CAAAATGTTTCTCATTGTACACAAAATAAATGTCCT [XGTACX_site6798] | 8.61 ± 0.44
15 | ATACATATGTATATTTGTACATATTAGACAATCTTA [XGTACX_site6706] | 8.72 ± 0.35
16 | ACATTTACAAGGAAAGTGCATATAAGAAAAATAAAA [GTGCAC_site9587] | 8.76 ± 0.47
17 | ATTAGTAAATTTATATGTACACATTGTTATTTTATA [XGTACX_site1177] | 8.86 ± 0.44
18 | ATTCTATTATAATACACACCCAAATATTAAAAAGAT [CACACA_site2960] | 8.99 ± 0.4
19 | CCACATGATATGATTACACACATATATATATTTACA [CACACA_site164] | 9.11 ± 0.37

Row | Sequence | gcPBM binding intensity (ln)
20 | TATTATATATATATATGTACATATATATGCTAAAAA [XGTACX_site5297] | 8.81 ± 0.26
21 | GATGTTGCAAAATTCTGTACATATAAATGTATACAT [XGTACX_site5009] | 8.87 ± 0.38
22 | TATTTATTAAAACACACACACACACCCACAAAATAA [CACACA_site241] | 10.04 ± 0.099
23 | ATAATATATATATAAACACACAAAAAAAATTATATA [CACACA_site1534] | 8.96 ± 0.42
24 | ATTTTTTTTTATGATACACACTTGGATAATTAAAAC [CACACA_site4473] | 8.71 ± 0.42
25 | TTATTCATTTTTATTTGTACATAATTATATGAAATT [XGTACX_site6389] | 8.52 ± 0.34
26 | TTTTATATTTTATGCACACTTATAAGAAATATGTAC [CACACA_site3040] | 8.82 ± 0.46
27 | GGAAAAAAAAATAAATGTACGAATTAACATATCAAA [XGTACX_site5653] | 8.71 ± 0.47
28 | ACACAAGCACACAAATGTACATATATATATATATAT [XGTACX_site5146] | 9.88 ± 0.49
29 | TTATTTTCCCTTTGTGCATGCAGTTTACTTTTTGTG [TGCATGCA_site993] | 9.38 ± 0.38
30 | ACACATATATTAAATGTGCACTGAAATATGCATATA [GTGCAC_site9936] | 9.05 ± 0.33
31 | ACTTGTAAGAGACACACACACACACGGATATAAATA [CACACA_site6517] | 10 ± 0.36
32 | CAAAATAAAAATAACACACACATTTATTTATATACA [CACACA_site6679] | 9.21 ± 0.39
33 | ATATATGTATATTTATGTACGTATTCCTGTATAGTC [XGTACX_site5763] | 9.08 ± 0.35
34 | TATAAAAGATTGGAATGTACATAAGAAAAAAATATA [XGTACX_site5028] | 8.71 ± 0.51
35 | TGTGTAGGGGATATTCTACTTTAAAAATAAATATAT [CACACA_negctrl_site207] | 8.53 ± 0.35
36 | TTCAAGATTTATTATACACACATATTAATATTTATA [CACACA_site6413] | 8.81 ± 0.33
37 | GGCCCAACTTCTTCTGACGAAAACGTAAATTGTGTG [XGTACX_negctrl_site533] | 8.88 ± 0.35
38 | AATCATATTAGTATGGTGCAACATATATAAATATAT | 8.87 ± 0.52

Row | Sequence | gcPBM binding intensity (ln)
39 | GTAACATTTTAAATATATACATATAATGTATTTATA [GTGCAC_negctrl_site344] | 8.56 ± 0.43
40 | ATTAATTAAAAGGGAACACATAGAAATTATAAAACA [GTGCAC_negctrl_site420] | 8.76 ± 0.51
41 | ATATATATATTATGGGGTACAAACATCAAAAGATTT [XGTACX_site3944] | 8.72 ± 0.4
42 | TGTTGTATCAATTTTTGTACATAACACATATGTATA [XGTACX_site3666] | 8.79 ± 0.39
43 | ATTAAACCGTGGGAGCACACACACACACACACACAT [TGCATGCA_negctrl_site72] | 10.6 ± 0.4
44 | TTTTGTTATTATAAATAGTAACATTTGTGAATATAT [TGCATGCA_negctrl_site132] | 8.37 ± 0.48
45 | AAGACATTTTTTTGTTGTACGTCTTCATTTATTGTA [XGTACX_site2890] | 8.93 ± 0.4
46 | AACAAATAAAAAAAAATAAAAATAAAAATAAAAAAA [XGTACX_negctrl_site451] | 8.62 ± 0.72
47 | TTTAAAATTATAAGGATTAAAAAAAAAAAAAATAAA [CACACA_negctrl_site114] | 8.12 ± 0.57
48 | TTATTTATGAAGTATACACACAATATAGATTTATAT [CACACA_site6703] | 8.7 ± 0.42
49 | AAGAATTATATTAATAGTACATATATATTAATTTAT [XGTACX_site5713] | 8.56 ± 0.44
50 | AATATTACAATTTGGTGTACAGGTGCACATGCCTCA [XGTACX_site1730] | 8.93 ± 0.51
51 | TCTACAATTTTAATTACACACTATAAAAAAGAAAGA [CACACA_site5624] | 8.54 ± 0.34
52 | TAGCTTATAAGATATGCACACACAACACTTACAAAA [CACACA_site8174] | 9.38 ± 0.32
53 | ATAATGAAAACAAGCACACATACATAAAATAAAATA [CACACA_site3257] | 9.3 ± 0.48
54 | ATGGAAGGATAATAAAAACCTTTACCTTTCTGTTTA [GTGCAC_negctrl_site380] | 8.48 ± 0.45
55 | ATAAATTTTTAAACAGCACACATAAATATAATATAT [CACACA_site8691] | 8.84 ± 0.4
56 | TATTTTATATTTTATGCACACTTATAAGAAATATGT [CACACA_site5647] | 8.91 ± 0.32
